Structures are written as SMILES. The whole screen tested about 50,000 compounds, of which about 800 (1.6%) showed an effect of 50% or more. Some of the results follow.

The target of the test is Bcl-2-like protein 10 (Homo sapiens) (UniProt Q9HD36). The test can be described thus: TR3 peptide-Bcl-B binding displacers, biochemical primary FP assay, phenotype converters (AID 1240).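 Note: 0% = Bcl-B with tracer peptide and DMSO and 100% = tracer peptide lacking Bcl-B.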 The conditions noted are these: GST-Bcl-B / FITC-TR3 peptide fluorescence polarization; stronger effect = higher value; compound at 3.75 mg/L. In general terms: In fluorescence polarisation assays a small probe gives low polarisation when free and higher when bound to something large.
Chain of UniProt Q9HD36 (Q9HD36 whole entry, looked up): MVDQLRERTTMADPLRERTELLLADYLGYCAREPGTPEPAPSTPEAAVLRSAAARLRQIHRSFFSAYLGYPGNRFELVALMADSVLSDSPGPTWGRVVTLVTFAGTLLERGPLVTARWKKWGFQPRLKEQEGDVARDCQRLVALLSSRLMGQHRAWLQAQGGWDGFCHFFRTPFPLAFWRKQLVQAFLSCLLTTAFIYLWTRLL
As for `CCOc1ccc(C2=Cc3cc(OC)c(OC)cc3S(=O)(=O)O2)cc1`, the displacement came out at 5.2%. Then `CCN1CCN(Cc2c(O)ccc3c(=O)c(Oc4ccccc4Br)c(C(F)(F)F)oc23)CC1`, with -2%; and `O=C(NC(=S)Nc1ccccc1)C12CC3CC(CC(C3)C1)C2`, with -4.3%; and `CCOc1cc(C(=S)N2CCC(C)CC2)ccc1O`, with -7.2%. Then `CC(C)CCn1c(Cc2ccccc2)nc2ccccc21`, with 13.2%; and `Cc1c(C)c2ccc(OCC(=O)O)cc2oc1=O`, with 10.1%; and `CCCc1ncc(C(O)c2ccc(OCC)cc2)n1C` (centres undefined), with -8.5%. Next, `CC1CN(C(=O)c2cc(Cl)ccc2Cl)CC(C)O1` (centres undefined): 6.4%; `N/C(Cc1ccc([N+](=O)[O-])cc1)=N\OC(=O)COc1cccc2ccccc12`: -17.2%. With `Cc1ccc(C2C(C(=O)c3cccs3)=C(O)C(=O)N2c2nncs2)cc1` (centres undefined), the displacement was 121%. Then `Cc1ccccc1-c1n[nH]c(=S)n1-c1ccccc1`, with -30.9%; and `CCCOc1ccc(/C=C/C(=O)c2ccc(F)cc2)cc1OCC`, with -1%. Next, `CCCC1C(c2ccccc2)NC(c2ccccc2)C(C)C1(O)CCC` (centres undefined): 12%; `O=C(Nc1nccs1)c1cccc(NC(=O)c2ccco2)c1`: -12%. Take `COc1cc(C(=O)Nc2ccc(C(=O)OC3CCCCC3)cc2)cc(OC)c1OC`: the displacement is -8.5%. In the case of `CCCOC(=O)c1ccc(NC(=O)c2cc(Cl)c(OC)c(Cl)c2)cc1`, the displacement is -3%.

Regarding `COc1ccc(C(c2c(C)[nH]c3ccccc23)c2c(C)[nH]c3ccccc23)cc1OC`, the displacement stood at 21.6%. With `O=C(NCc1cccnc1)C(=O)Nc1ccccc1Cl`, the displacement is -11.3%.

Turning to `CCC(C(=O)Nc1ccc(Cl)c([N+](=O)[O-])c1)c1ccccc1` (centres undefined), the displacement stood at 18.5%. Regarding `O=C(CN1C(=O)C2(OCCO2)c2ccccc21)c1ccccc1`, the displacement came out at 4.8%. With `CCOc1ccccc1N=Cc1c(O)n(C)c(=O)n(C)c1=O`, the displacement was 5.2%. Next, `O=C1NC(=S)N/C1=C/c1ccc(-c2cc([N+](=O)[O-])ccc2Cl)o1`: 18.2%; `O=C(CSc1nnc(-c2cccc(F)c2)n1-c1ccccc1)NCc1ccccc1`: 13.5%; `O=C(OCc1ccc2c(c1)OCO2)c1ccc(S(=O)(=O)N2CCCCC2)cc1`: 6.6%. For the molecule `CCC(C)NC(=O)CN(c1cccc(Br)c1)S(=O)(=O)c1ccccc1` (centres undefined), the displacement turned out to be 2.4%. Then `NNc1nccc(Nc2ccccc2C(=O)O)n1`, with -29.4%; and `COc1cccc(/C=N\NC(=O)CN2CCN(Cc3ccccc3)CC2)c1O`, with -21.8%; and `Fc1ccccc1-c1nnc(-c2ccc3c(c2)OCO3)o1`, with 11.9%. Next, `Cc1ccc(-c2csc(NC(=O)c3ccccc3Cl)n2)cc1`: 9.1%. Then `CCn1c2ccccc2c2cc(NC(=O)c3cccnc3)ccc21`, with 5.1%; and `COCCCN1C(=O)/C(=C\c2cccs2)SC1=S`, with -8.2%; and `CCOc1ccccc1-n1sc2c(c1=S)-c1cc(C)ccc1NC2(C)C`, with -5.3%. As for `COc1ccc(NC(=O)c2cnn3c2NC(c2ccccc2)CC3C(F)(F)F)cc1OC` (centres undefined), the displacement turned out to be 4.2%. As to `CC(C)OCP(=O)(c1ccccc1)c1ccccc1`, the displacement was determined as 5%.

On to `COc1ccc(S(=O)(=O)N2CCOCC2)cc1Br`, for which the displacement is -7.7%. Next, `N#CSCCCCOc1ccc(I)cc1`: 13.7%; `COc1ccc(CNC(=O)C(=O)Nc2cc(C)cc(C)c2)cc1`: 9.7%. As to `Cc1cccc(/C(N)=N/OC(=O)Cc2ccc(Cl)cc2)c1`, the displacement is 6.3%. Then `COc1ccc(Br)cc1C(=O)Nc1ccc(C)c(C)c1`, with 7.6%; and `C=CCOc1ccc(/C=C2/N=C(C)C(C(=O)OCC)=C2O)cc1OC`, with -2.1%; and `CCC1=NN2C(=N)/C(=C/c3ccc(OCc4ccc(F)cc4)cc3)C(=O)N=C2S1`, with 0.4%. Next, `CSc1ccc(/C=N/NC(=O)COc2c(Br)cc(Br)cc2Br)cc1`: 7.9%; `N#C/C(=C\c1ccc(-c2ccc(Br)cc2)o1)C(N)=O`: 4.6%; `Nc1c(Cc2ccccc2)ccc2c1C(=O)c1ccccc1C2=O`: 10.3%. Next, `CN(C)c1cccc(C(=O)NC2CCCCCC2)c1`: 5%.

`COc1ccc(NC(=O)CN(c2ccccc2OC)S(=O)(=O)c2ccccc2)cc1OC`: the displacement came out at 5.1%. In the case of `CCOc1ccc2nc(SCC(N)=O)sc2c1`, the displacement is -0.4%. Then `CCN(CC)CCCOc1ccc(C)cc1C(C)(C)C`, with 5.2%; and `Cc1ccc(-c2cc(C(F)(F)F)n3ncc(C(=O)NCC4CCCO4)c3n2)cc1` (centres undefined), with 2.5%; and `Cc1nc2ccc(Cl)cn2c1C(=O)NN=C1CCCCC1`, with 7.1%. Turning to `COc1cc(OC)cc(C(=O)N2CCN(C3CCCC3)CC2)c1`, the displacement was -23.1%.

On to `Cc1ccc(Br)cc1S(=O)(=O)N1CCN(C(c2ccccc2)c2ccccc2)CC1`, for which the displacement is 4.7%. Regarding `COc1ccc(OC)c(NC(=S)NC(NC(=O)c2ccco2)C(Cl)(Cl)Cl)c1` (centres undefined), the displacement is -8.9%. On to `O=C(Nc1cc(C(F)(F)F)ccc1N1CCCCC1)c1cccc([N+](=O)[O-])c1`, for which the displacement was -9.9%.

Consider `CN1C(=O)/C(=C\c2ccc(OS(=O)(=O)c3ccccc3[N+](=O)[O-])cc2)SC1=S`, for which the displacement came to 35.7%. Then `COc1ccc(C2CC(=O)C3=C(C2)Nc2ccccc2NC3c2ccc(OCc3ccccc3)c(OC)c2)cc1OC` (centres undefined), with 6.7%; and `O=C(Nc1ccc(Cl)c(NC(=O)c2ccc(Cl)cc2Cl)c1)c1cccs1`, with 15.4%. Turning to `CC1=NN(c2cccc(C(F)(F)F)c2)C(=O)/C1=C/c1cccs1`, the displacement was -10%. Then `CC(=O)c1cc(C(=O)Nc2ccc(C(=O)O)cc2)oc1C`, with -7.6%; and `O=S(=O)(/N=C(/c1ccccc1)N1CCOCC1)c1ccccc1`, with 9.8%. Then `Cc1cc(Cl)ccc1OCC(=O)Nc1ccc(Br)c(NC(=O)c2ccccc2)c1`, with 6.6%; and `CCc1cccc(C)c1NC(=O)c1cc(OC)c(OC)cc1[N+](=O)[O-]`, with 15.6%; and `CC(=O)c1cccc(N/C=C/[N+](=O)[O-])c1`, with 15.2%. Then `Cc1c(NC(=O)/C=C/c2ccc(Cl)cc2)cccc1-c1nc2ncccc2o1`, with 19%; and `COc1ccc(N2C(=O)/C(=C\c3ccc4c(c3)OCO4)SC2=S)cc1`, with 18.8%. Take `O=C(Nc1ccccc1C(F)(F)F)C1COc2ccccc2O1` (centres undefined): the displacement is -3.4%. As to `Cc1cc(/C=N/NC(=O)c2ccccn2)c(C)n1-c1cccc(Cl)c1`, the displacement was -15.5%. Next, `CC(=O)c1ccc(NC(=O)c2ccc(-c3ccc(Br)cc3)o2)cc1`: 4.7%; `Cc1cc(N(C)/N=C/c2ccccc2Cl)nc(-c2ccccc2O)n1`: 5.1%. For `CCC1=NN2C(=N)/C(=C/c3ccc(-c4ccc(C(=O)O)cc4)o3)C(=O)N=C2S1`, the displacement is 44.1%. Then `O=C(c1cccc([N+](=O)[O-])c1)c1ccc2c(c1)C(=O)N(NC(=O)c1ccco1)C2=O`, with 14.1%; and `CC(Oc1ccccc1)C(=O)Nc1ccccc1I` (centres undefined), with -3.2%; and `O=C1CCCc2nc(-c3ccccc3)cc(-c3ccccc3)c21`, with 6.3%.

For the molecule `Cc1cccc(NC(=O)COc2ccc3ccccc3c2)n1`, the displacement is -0.5%. Next, `CC(C)(C)NC(=O)CC12CC3CC(C1)CC(CC(=O)NC(C)(C)C)(C3)C2`: 4.4%. Next, `O=[N+]([O-])c1ccc(NCCNS(=O)(=O)c2ccccc2)c(Cl)c1`: 9.8%; `CC1(C)CC(=O)C2=C(C1)Nc1ccccc1N(C(=O)Cc1ccccc1)C2c1cccc(O)c1` (centres undefined): -14.3%; `COc1cccc(CN2CCN(Cc3cccn3C)CC2)c1`: 17.7%. Take `COc1ccc(N2C(=O)C3ON(c4ccccc4)C(c4ccco4)C3C2=O)cc1` (centres undefined): the displacement was -5.5%. With `Cc1ccc(OCC(=O)N2CCN(c3ccc([N+](=O)[O-])cc3)CC2)c(Br)c1`, the displacement was -3.8%. Next, `COc1c(Cl)ccc(Cl)c1C(=O)Nc1ccc(C)cc1`: -7.9%; `NC1=NN(c2ccc(N)cc2)CC1`: 48.8%. Next, `COc1ccc(/C=c2\sc3nc(-c4ccc(Cl)cc4Cl)nn3c2=O)cc1`: 19.2%. Regarding `Cc1cccc(NC(=O)Nc2ccc(-c3nc4ccccc4s3)cc2)c1`, the displacement was determined as 16.3%.

For the molecule `C/C(CC(=O)Nc1ccc(Nc2ccccc2)cc1)=N\NC(=O)c1ccccc1C`, the displacement was -13%.

As to `O=C(CSc1nc2ccccc2[nH]1)Nc1ccc2c(c1)oc1ccccc12`, the displacement was 4%. Then `Cc1nc(NC(=O)c2ccccc2)sc1-c1csc(Nc2ccc(N)cc2)n1`, with 6.4%; and `NC(=O)c1c(NC(=O)/C=C/C(=O)O)sc2c1CCCC2`, with -0.6%; and `COC(=O)c1ccccc1NC(=O)CN(c1ccc(OC)cc1)S(C)(=O)=O`, with 8.1%. For `CC12CC3CC(C1)CC(CC(=O)O)(C3)C2`, the displacement is -9.3%. Next, `N#C/C(=C/c1ccc(C#N)cc1)C(=O)Nc1cccc(Br)c1`: -8.5%; `COc1ccc(/C=C(/NC(=O)c2ccco2)C(=O)N2CCCCC2)cc1`: 3.9%; `O=C(NCCCN1CCOCC1)c1cc2n(n1)C(C(F)(F)F)CC(c1ccc(Cl)c(Cl)c1)N2` (centres undefined): 6.5%. Next, `CC1=C(C(=O)OCCC(C)C)C(c2ccc(Cl)cc2)NC(=O)N1` (centres undefined): 8.4%. Next, `Cc1cc(N2C(=O)NC(=O)/C(=C\c3ccc(N(C)C)o3)C2=O)ccc1Br`: 153%; `COc1ccc(C)cc1NC(=O)C1CC1c1ccccc1` (centres undefined): -0.4%. On to `COc1ccc(CNC(=O)COc2cc(C)c(Cl)c(C)c2)cc1`, for which the displacement was -7.9%.

For the molecule `O=C(c1cccc(Cl)c1Cl)N1CCN(c2ccc([N+](=O)[O-])cc2)CC1`, the displacement was found to be 9.6%. Next, `CCOC(=O)C1=C(C)NC2=C(C(=O)CCC2)C1c1ccsc1` (centres undefined): 5.2%; `CCOc1cccc2c1N(C(C)=O)C(C)(C)C(=S)C2=C1SC(C(=O)OC)=C(C(=O)OC)S1`: 2%; `CCc1ccc(NC(=O)C(=O)NCCN2CCN(C(=O)c3ccccc3Cl)CC2)cc1`: 5.6%.

On to `O=C(/C=C/c1ccco1)NCCCCNC(=O)/C=C/c1ccco1`, for which the displacement was determined as 18.3%. Turning to `O=C(O)/C=C/C(=O)Nc1ccc(S(=O)(=O)N2CCCCCC2)cc1`, the displacement was found to be 10%. In the case of `O=c1c2ccccc2nc(SCc2ccccc2)n1Cc1ccccc1`, the displacement was -0.7%. For `N#C/C(=C(/O)CN1C(=O)c2ccccc2C1=O)c1nc2ccccc2[nH]1`, the displacement is -1.5%. Then `COc1ccc(C(=O)Nc2nc(-c3ccccc3)c(-c3ccccc3)s2)cc1[N+](=O)[O-]`, with 15.8%; and `O=C1c2cccc3cccc(c23)C(=O)N1CCOc1ccccc1Cl`, with -0.4%. As to `O=C(/C=C/c1cc(Br)cs1)Nc1cccc2ncccc12`, the displacement is 10.9%. Take `CCCC(=O)Nc1ccc(NC(=O)c2cc([N+](=O)[O-])ccc2Br)cc1`: the displacement is -2.5%.

Source of the values: PubChem BioAssay AID1240 (Sanford-Burnham Center for Chemical Genomics, 2008).
